# Source: US12037378B2, “Variant CD58 domains and uses thereof” (NOVARTIS AG, priority 2019, dated 2024)
# T1: human CD19 (Homo sapiens, UniProt P15391)
# T1 construct: expressed in transfected cells; host or cells: mouse cell line 300.19
# T1 sequence (P15391 20-556): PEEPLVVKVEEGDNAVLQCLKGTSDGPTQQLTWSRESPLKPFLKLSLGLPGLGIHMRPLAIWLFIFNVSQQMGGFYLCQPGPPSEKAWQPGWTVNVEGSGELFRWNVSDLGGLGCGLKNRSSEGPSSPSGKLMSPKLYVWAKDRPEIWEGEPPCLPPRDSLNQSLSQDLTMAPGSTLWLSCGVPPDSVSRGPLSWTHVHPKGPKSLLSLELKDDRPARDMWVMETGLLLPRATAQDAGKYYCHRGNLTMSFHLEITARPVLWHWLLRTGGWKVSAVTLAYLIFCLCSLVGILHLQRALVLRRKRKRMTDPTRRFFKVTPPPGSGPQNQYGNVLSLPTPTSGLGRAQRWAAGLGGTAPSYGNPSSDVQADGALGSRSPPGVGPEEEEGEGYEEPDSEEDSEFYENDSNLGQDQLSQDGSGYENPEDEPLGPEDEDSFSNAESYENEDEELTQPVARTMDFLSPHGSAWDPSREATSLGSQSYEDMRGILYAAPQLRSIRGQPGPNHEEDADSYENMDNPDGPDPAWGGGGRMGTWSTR
# B1: NEG258-based TBM: trispecific with NEG258-based CD19 binding arm, CD3hi anti-CD3 scFv and IgV domain of CD58 (CD58-6) (antibody)
# heavy: QVQLVQSGAEVKKPGASVKVSCKASGYTFTTYWIQWVRQAPGQRLEWMGAVYPGDADTRYTQKFQGRVTLTADRSASTAYMELSSLRSEDTAVYYCGRDAGLEYYALDYWGQGTLVTVSSASTKGPSVFPLAPSSKSTSGGTAALGCLVKDYFPEPVTVSWNSGALTSGVHTFPAVLQSSGLYSLSSVVTVPSSSLGTQTYICNVNHKPSNTKVDKRVEPKSCGGGGSGGGGSEVQLVESGGGLVQPGGSLKLSCAASGFTFNTYAMNWVRQASGKGLEWVGRIRSKYNNYATYYADSVKDRFTISRDDSKSTLYLQMNSLKTEDTAVYYCVRHGNFGNSYVSWFAYWGQGTLVTVSSGGGGSGGGGSGGGGSGGGGSQAVVTQEPSLTVSPGGTVTLTCRSSTGAVTTSNYANWVQQKPGQAPRGLIGGTNKRAPWTPARFSGSLLGDKAALTLSGAQPEDEAEYFCALWYSNLWVFGGGTKLTVLGGGGSDKTHTCPPCPAPELLGGPSVFLFPPKPKDTLMISRTPEVTCVVVAVSHEDPEVKFNWYVDGVEVHNAKTKPREEQYASTYRVVSVLTVLHQDWLNGKEYKCKVSNKALAAPIEKTISKAKGQPREPQVCTLPPSREEMTKNQVSLSCAVKGFYPSDIAVEWESNGQPENNYKTTPPVLDSDGSFFLVSKLTVDKSRWQQGNVFSCSVMHEALHNHYTQKSLSLSPGK
# light: EIVMTQSPATLSVSPGERATLSCRASQDVGTAVAWYQQKPGQAPRLLIYWASTRHTGIPARFSGSGSGTEFTLTISSLQSEDFAVYFCQQYANFPLYTFGQGTKLEIKRTVAAPSVFIFPPSDEQLKSGTASVVCLLNNFYPREAKVQWKVDNALQSGNSQESVTEQDSKDSTYSLSSTLTLSKADYEKHKVYACEVTHQGLSSPVTKSFNRGEC
# chain: SQQIYGVVYGNVTFHVPSNVPLKEVLWKKQKDKVAELENSEFRAFSSFKNRVYLDTVSGSLTIYNLTSSDEDEYEMESPNITDTMKFFLYVLESGGGGSDKTHTCPPCPAPELLGGPSVFLFPPKPKDTLMISRTPEVTCVVVAVSHEDPEVKFNWYVDGVEVHNAKTKPREEQYASTYRVVSVLTVLHQDWLNGKEYKCKVSNKALAAPIEKTISKAKGQPREPQVYTLPPCREEMTKNQVSLWCLVKGFYPSDIAVEWESNGQPENNYKTTPPVLDSDGSFFLYSKLTVDKSRWQQGNVFSCSVMHEALHNRYTQKSLSLSPGK
# B2: NEG218-based TBM: trispecific with NEG218-based CD19 binding arm, CD3hi anti-CD3 scFv and IgV domain of CD58 (CD58-6) (antibody)
# heavy: EVQLVQSGAEVKKPGESLKISCKASGYSFTNYWMNWVRQMPGKGLEWMGMIHPSDSEIRLNQKFQGQVTLSVDKSIGTAYMQWSSLKASDTAMYYCSRWYYLSSPMDYWGQGTTVTVSSASTKGPSVFPLAPSSKSTSGGTAALGCLVKDYFPEPVTVSWNSGALTSGVHTFPAVLQSSGLYSLSSVVTVPSSSLGTQTYICNVNHKPSNTKVDKRVEPKSCGGGGSGGGGSEVQLVESGGGLVQPGGSLKLSCAASGFTFNTYAMNWVRQASGKGLEWVGRIRSKYNNYATYYADSVKDRFTISRDDSKSTLYLQMNSLKTEDTAVYYCVRHGNFGNSYVSWFAYWGQGTLVTVSSGGGGSGGGGSGGGGSGGGGSQAVVTQEPSLTVSPGGTVTLTCRSSTGAVTTSNYANWVQQKPGQAPRGLIGGTNKRAPWTPARFSGSLLGDKAALTLSGAQPEDEAEYFCALWYSNLWVFGGGTKLTVLGGGGSDKTHTCPPCPAPELLGGPSVFLFPPKPKDTLMISRTPEVTCVVVAVSHEDPEVKFNWYVDGVEVHNAKTKPREEQYASTYRVVSVLTVLHQDWLNGKEYKCKVSNKALAAPIEKTISKAKGQPREPQVCTLPPSREEMTKNQVSLSCAVKGFYPSDIAVEWESNGQPENNYKTTPPVLDSDGSFFLVSKLTVDKSRWQQGNVFSCSVMHEALHNHYTQKSLSLSPGK
# light: EIVMTQSPATLSVSPGERATLSCRASQDVGTAVAWYQQKPGQAPRLLIYWASTRHTGIPARFSGSGSGTEFTLTISSLQSEDFAVYFCQQYSSYPYTFGQGTKLEIKRTVAAPSVFIFPPSDEQLKSGTASVVCLLNNFYPREAKVQWKVDNALQSGNSQESVTEQDSKDSTYSLSSTLTLSKADYEKHKVYACEVTHQGLSSPVTKSFNRGEC
# chain: B1 chain
# How the values were obtained:
# [1] = biological target: T1, human CD19; assay: Binding to 300.19 cells overexpressing human CD19 (FACS)
# Experimental: (§1) The mouse cell line 300.19 was engineered to overexpress either human CD19 or cyno CD19. Cells were cultured in RPMI medium (Invitrogen #11875-093) with 10% FBS and 2-mercaptoethanol. Cells were harvested and resuspended in FACS buffer (PBS containing 1% FBS). 50,000 cells per well were plated in a V-bottom 96-well plate. Each cell line was incubated with serial dilutions of TBMs of Example 1 for one hour on ice. Cells were centrifuged for 4 min at 400×g and washed with FACS buffer. This was repeated twice, and then the cells were incubated with Alexa-647 labeled anti-human Fc secondary antibody (Jackson Immuno #109-605-098) for 30 min on ice. The cells were washed twice, then resuspended in 100 μL of FACS buffer. FACS data was collected on a Beckman Coulter Cytoflex and analysis was performed using CytExpert v2.3.
# [2] = test system: Karpas422 target cells; assay: Re-directed T cell cytotoxicity by CD19 TBMs, Karpas422 target cells; type: cell-based; conditions: human pan T cells, E:T 3:1 or 5:1, 24-96 hr
# Experimental: (§2) In one study, the TBMs were compared across multiple donor effector cells. Briefly, huCD19-expressing Nalm6 or Karpas422 target cells were engineered to overexpress firefly luciferase. Cells were harvested and resuspended in RPMI medium (Invitrogen #11875-093) with 10% FBS. 2,500 target cells per well were plated in a flat-bottom 384-well plate. Human pan T effector cells were isolated via MACS negative selection (Miltenyi Biotec #130-096-535) from two donors from cryopreserved PBMC (Cellular Technologies Limited #CTL-UP1) then added to the plate to obtain a final E:T ratio of 3:1 or 5:1. Co-cultured cells were incubated with a serial dilution of all constructs and controls. For normalization, average maximum luminescence refers to target cells co-incubated with effector cells, but without any test construct. […] Luminescence was measured on an Envision plate reader after a 10 minute incubation. Percent specific lysis was calculated using the following equation: Specific lysis (%)=(1−(sample luminescence/average maximum luminescence))*100
# (§3) In one study, the TBMs were compared across multiple donor effector cells. […] For normalization, average maximum luminescence refers to target cells co-incubated with effector cells, but without any test construct. […] Luminescence was measured on an Envision plate reader after a 10 minute incubation. […]
# [3] = test system: Karpas422 target cells; assay: RTCC of NEG258-based TBMs with CD2 or lysozyme binding arm and blinatumomab, Karpas422; type: cell-based; conditions: human pan T cells, E:T 3:1, 1:1, 1:3 or 1:5, 48-96 hr
# Experimental: (§4) The purified TBMs were compared across multiple donor effector cells. Briefly, huCD19-expressing Nalm6 and Karpas422 target cells were engineered to overexpress firefly luciferase. Cells were harvested and resuspendend in RPMI medium (Invitrogen #11875-093) with 10% FBS. 5,000 target cells per well were plated in a flat-bottom 384-well plate. Human pan T effector cells were isolated via negative selection (Stemcell Technologies #17951) from two donors from cryopreserved PBMCs that were separated from a leukopak (Hemacare #PB001F-1) by Ficoll density gradient centrifugation. Purified T cells were then added to the plate to obtain a final E:T ratio of 3:1, 1:1, 1:3 or 1:5. Co-cultured cells were incubated with serial dilutions of all constructs and controls. For normalization, average maximum luminescence refers to target cells co-incubated with effector cells, but without any test construct. After an incubation of 48, 72 or 96 hr at 37° C., 5% CO2, OneGlo luciferase substrate (Promega #E6120) was added to the plate. Luminescence was measured on an Envision plate reader after a 10 minute incubation. Percent specific lysis was calculated using the following equation: Specific lysis (%)=(1−(sample luminescence/average maximum luminescence))*100
# [4] = test system: cyno CD19; assay: Binding to 300.19 cells overexpressing cyno CD19 (FACS)
# Experimental: as §1
# [5] = test system: Nalm6 target cells; assay: RTCC of NEG258-based TBMs with CD2 or lysozyme binding arm and blinatumomab, Nalm6; type: cell-based; conditions: human pan T cells, E:T 3:1, 1:1, 1:3 or 1:5, 48-96 hr
# Experimental: as §4
# [6] = test system: Nalm6 target cells; assay: Re-directed T cell cytotoxicity by CD19 TBMs, Nalm6 target cells; type: cell-based; conditions: human pan T cells, E:T 3:1 or 5:1, 24-96 hr
# Experimental: as §2, §3
Molecule,binding to 300.19 cells overexpressing human CD19 [1],cytotoxic activity against Karpas422 cells [2],cytotoxic activity against Karpas422 cells [3],binding to 300.19 cells overexpressing cyno CD19 [4],cytotoxic activity against Nalm6 target cells [5],cytotoxic activity against Nalm6 target cells [6]
B1,bind to cell lines engineered to overexpress both human and cyno CD19,more potent than the NEG218-based TBM,superior cytotoxic activity,bind to cell lines engineered to overexpress both human and cyno CD19,superior cytotoxic activity,more potent than the NEG218-based TBM
B2,bind to cell lines engineered to overexpress both human and cyno CD19,,,bind to cell lines engineered to overexpress both human and cyno CD19,,
